# Measurements published in the antibiotic and cytotoxicity screens of Wong et al. (2023).
# The other results are listed elsewhere or left out.
# Test system: HSkMC (human skeletal muscle cells)
# Assay: cytotoxicity call (relative viability < 0.9)
# Details: 10 µM
row,SMILES,cytotoxicity call
1,C[C@@H]1CN([C@@H](C)CO)S(=O)(=O)c2ccc(C#Cc3cccc(F)c3)cc2O[C@H]1CN(C)S(=O)(=O)c1cn(C)cn1,inactive
2,CN(C)C(=O)CN1C[C@@H]2CCN(C(=O)[C@H]3CCCO3)CC[C@H]2S1(=O)=O,inactive
3,C[C@@H]1CCCCO[C@@H](CN(C)C(=O)Nc2ccccc2)[C@H](C)CN([C@H](C)CO)C(=O)c2cc(NC(=O)C3CCCCC3)ccc2O1,inactive
4,CON=C(C(=O)NC1C(=O)N2C(C(=O)O)=C(CSC(=O)c3ccco3)CSC12)c1csc(N)n1.Cl (stereo not given),inactive
5,COc1cc2c(cc1OC)CN(C(=O)[C@@H]1[C@H]3C(=O)O[C@H](c4ccccc4)[C@H](c4ccccc4)N3[C@H](c3ccc(OCCO)cc3)[C@@]13C(=O)Nc1ccc(C#CC4(O)CCCCCC4)cc13)CC2,inactive
6,C[C@@H]1CN([C@H](C)CO)C(=O)c2cc(NC(=O)Nc3ccc(C(F)(F)F)cc3)ccc2O[C@@H](C)CCCCO[C@@H]1CN(C)Cc1ccccc1,active
7,C[C@@H]1CN([C@@H](C)CO)C(=O)c2cccc(NC(=O)C3CCCCC3)c2O[C@@H]1CN(C)C(=O)Nc1ccc(C(F)(F)F)cc1,inactive
8,C[C@H](CO)N1C[C@H](C)[C@@H](CN(C)CC2CCCCC2)OCCCC[C@H](C)Oc2ccc(NC(=O)Cc3ccccc3)cc2C1=O,inactive
9,C[C@H](CO)N1C[C@H](C)[C@H](CN(C)S(=O)(=O)c2ccccc2)Oc2ccc(NC(=O)Cc3ccccc3)cc2CC1=O,inactive
10,O=C(C[C@@H]1CC[C@@H]2[C@H](COC[C@@H](O)CN2S(=O)(=O)c2ccc(Cl)cc2)O1)N[C@@H]1CCN(Cc2ccccc2)C1,inactive
11,COc1cccc(-c2cnc3c(c2)C(=O)N([C@H](C)CO)C[C@H](C)[C@H](CN(C)S(=O)(=O)c2ccc(F)cc2)O3)c1,inactive
12,COc1ccc(NC(=O)N(C)C[C@@H]2OCCCC[C@H](C)Oc3ccc(NS(=O)(=O)c4ccc(C)cc4)cc3C(=O)N([C@H](C)CO)C[C@@H]2C)cc1,inactive
13,Cc1noc(C)c1S(=O)(=O)N(C)C[C@H]1Oc2ccc(N(C)C)cc2CC(=O)N([C@H](C)CO)C[C@H]1C,inactive
14,COc1ccc(NC(=O)Nc2cccc3c2O[C@H](CN(C)CC2CCCCC2)[C@@H](C)CN([C@H](C)CO)C3=O)cc1,inactive
15,CC(C)NC(=O)N(C)C[C@@H]1OCCCC[C@@H](C)Oc2ccc(NC(=O)CCCCCC(=O)Nc3ccccc3N)cc2C(=O)N([C@H](C)CO)C[C@@H]1C,inactive
16,Cc1noc(C)c1NC(=O)N(C)C[C@H]1Oc2ccc(NS(=O)(=O)c3cn(C)cn3)cc2C(=O)N([C@H](C)CO)C[C@H]1C,inactive
17,C[C@@H]1CN([C@@H](C)CO)C(=O)c2cc(N(C)C)ccc2O[C@@H](C)CCCCO[C@H]1CN(C)S(=O)(=O)c1cn(C)cn1,inactive
18,C[C@@H]1CN([C@@H](C)CO)C(=O)c2cc(NC(=O)C3CCCCC3)ccc2O[C@@H](C)CCCCO[C@@H]1CN(C)C(=O)CCC(F)(F)F,inactive
19,C[C@H]1CCCCO[C@H](CN(C)S(=O)(=O)c2ccc(Cl)cc2)[C@@H](C)CN([C@@H](C)CO)C(=O)c2cc(NC(=O)Nc3ccc4c(c3)OCO4)ccc2O1,inactive
20,COc1ccc(S(=O)(=O)N(C)C[C@@H]2Oc3ncc(C#Cc4cccc(F)c4)cc3C(=O)N([C@H](C)CO)C[C@@H]2C)cc1,inactive

row,SMILES,cytotoxicity call
1,CO[C@H]1O[C@H](CO)[C@@H](OC(=O)Nc2ccc3c(c2)OCO3)[C@H](OC(=O)Nc2ccc3c(c2)OCO3)[C@@H]1OC(=O)Nc1ccc2c(c1)OCO2,inactive
2,CCOC(=O)C(CCc1ccccc1)NC(C)C(=O)N1Cc2cc(OC)c(OC)cc2CC1C(=O)O.Cl (stereo not given),inactive
3,Cc1noc(C)c1NC(=O)Nc1ccc2c(c1)CC(=O)N([C@H](C)CO)C[C@H](C)[C@@H](CN(C)S(=O)(=O)c1c(C)noc1C)O2,inactive
4,C[C@@H]1CCCCO[C@H](CN(C)C(=O)Nc2ccc3c(c2)OCO3)[C@H](C)CN([C@H](C)CO)C(=O)c2cc(NC(=O)Nc3ccc(C(F)(F)F)cc3)ccc2O1,inactive
5,Cn1c(=O)c(F)c(Nc2ccc(I)cc2F)c2c(=O)n(C[C@@H](O)CO)cnc21,active
6,C[C@@H]1CN([C@@H](C)CO)C(=O)Cc2cc(NS(C)(=O)=O)ccc2O[C@@H]1CN(C)Cc1ccc2c(c1)OCO2,inactive
7,C[C@@H]1CN([C@H](C)CO)C(=O)Cc2cc(NS(=O)(=O)c3ccc(Cl)cc3)ccc2O[C@@H]1CN(C)Cc1ccc(-c2ccccc2)cc1,active
8,Cc1cc[nH]c(=O)c1,inactive
9,C[C@H](CO)NS(=O)(=O)c1ccnn1C,inactive
10,O=C(C[C@H]1C=C[C@H](NS(=O)(=O)c2ccc(F)cc2)[C@@H](CO)O1)N1CCC(Cc2ccccc2)CC1,inactive
11,C#CCN1CCS(=O)(=O)CC1,inactive
12,C[C@@H]1CN([C@H](C)CO)C(=O)c2cccc(NS(=O)(=O)c3ccc(F)cc3)c2O[C@H]1CN(C)Cc1ccc(Cl)c(Cl)c1,inactive
13,Cc1ccc(-c2ccc3c(c2)O[C@@H](CN(C)C(=O)CN(C)C)[C@@H](C)CN([C@@H](C)CO)S3(=O)=O)cc1,inactive
14,CC(=O)OCC[C@H](C)CCC=C(C)C,inactive
15,COc1ccc(S(=O)(=O)Nc2ccc3c(c2)C(=O)N([C@H](C)CO)C[C@H](C)[C@@H](CN(C)CC2CC2)O3)cc1,inactive
16,C[C@@H]1CN([C@@H](C)CO)C(=O)c2cc(NC(=O)Cn3cnnn3)ccc2O[C@@H]1CN(C)C(=O)Nc1ccccc1,inactive
17,C[C@H]1CCCCO[C@H](CN(C)C(=O)Nc2cccc3ccccc23)[C@@H](C)CN([C@@H](C)CO)C(=O)c2cc(NC(=O)c3ccncc3)ccc2O1,inactive
18,CO[C@H]1CN(C)C(=O)c2ccc(NS(=O)(=O)CC(F)(F)F)cc2OC[C@H](C)N(C(=O)c2ccc3c(c2)OCO3)C[C@@H]1C,inactive
19,COc1ccc(S(=O)(=O)Nc2cccc3c2O[C@@H](CN(C)S(=O)(=O)c2cn(C)cn2)[C@@H](C)CN([C@@H](C)CO)C3=O)cc1,inactive
20,CC(=O)NCCCC[C@@H]1NC(=O)[C@@H]2C[C@H](C(=O)NCCCCN(C)C)[C@H](c3ccc(O)cc3)N2C1=O,inactive
